# Data reported in PubChem BioAssay AID686978 (National Center for Advancing Translational Sciences (NCATS), 2013).
# Where “and” joins values, the source holds several entries; their conditions need not be identical. Identical values can stand only once. Among all 420,000 compounds or so, about 64,000 (15%) were called active. Inconclusive means that the source gave no clear call. Such entries were picked first, then a sample of the others. Calls come from the whole dose curve; as a rule, active = well fitted inhibition curve with a large enough effect; inconclusive = small, poorly fitted or top-dose-only effect; inactive = flat fitted curve, though single readings scatter. No potency is given beside an inconclusive call; the fits are too rough.
# Assay: qHTS for Inhibitors of human tyrosyl-DNA phosphodiesterase 1 (TDP1): qHTS in cells in absence of CPT; note: nearly all actives have a fitted effect of over 55% in size
# Details: DT40 Tdp1-/- hTDP1 cells, no CPT, ATP luminescence, 48 h; series mostly up to 46.2 µM
# Procedure, shortened: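 Growth of hTDP1-complemented DT40 Tdp1-knockout cells is measured by ATP luminescence after at least 48 hr compound exposure at 37 °C, with DMSO substituting for the 20 nM CPT used in the parallel screen.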
# Potency is the fitted concentration of half-maximal effect; tags give direction and shape of the fitted curve.
row,Compound,Potency
1,CCOC(=O)CNC(=O)N1Cc2cc(-c3ccccc3)ccc2-n2nncc2C1,inactive
2,O=c1oc2ccccc2c(O)c1C(c1ccccn1)c1c(O)c2ccccc2oc1=O,inactive
3,C=CC1CN2CCC1CC2c1[nH]c2ccccc2c1CCO (stereo unspecified),"inconclusive [inhibitor, full curve, poor fit]"
4,NC1CCc2cc(O)c(O)cc2C1 (stereo unspecified),active: 16.4 µM and active: 22.4 µM and active: 13 µM
5,Cc1ccc(Cn2nc(C)c(C=O)c2Cl)cc1,inactive
6,CC1CC(O)[C@]2(O)[C@]13CC(=O)OC[C@@]2(C)[C@@](C)(O)C(=O)C3 (stereo partly specified),inactive
7,CCOC(=O)CC(SP1(=S)OCC2(CC=CCC2)CO1)C(=O)OCC (stereo unspecified),inactive
8,O=C1NC(=O)N(CCC2=CCCCC2)C(=O)/C1=C\c1cccs1,"inconclusive [inhibitor, single point]"
9,C[C@]12CC[C@H]3C(=CCc4cc(O)ccc43)[C@@H]1CCC2=O,"inconclusive [inhibitor, full curve]"
10,C[C@@H]1CN([C@H](C)CO)C(=O)c2cc(/C=C/c3ccccc3)cnc2O[C@H]1CN(C)C(=O)NC1CCCCC1,"inconclusive [inhibitor, single point]"
11,COc1ccc(-n2nc(C(=O)NCC(=O)N3CCC4(CC3)OCCO4)c3ccccc3c2=O)c(OC)c1,inactive
12,O=C(c1ccccc1)c1ccc(N=Nc2c(O)[nH]c(=O)[nH]c2=O)cc1,"inconclusive [inhibitor, partial curve]"
13,O=C(O)[C@@H]1C[C@H]2C[C@@H](CP(=O)(O)O)CC[C@H]2CN1,inactive
14,COc1ccc(OC)c(N2C(=O)NC(=O)C(CCc3ccncc3)(CCc3ccncc3)C2=O)c1,inactive
15,Cc1ccc2c(C)c3ccc4ccccc4c3c[n+]2c1,active: 4.61 µM
16,Cc1cccc(C(C)c2cnc[nH]2)c1C (stereo unspecified),"inconclusive [inhibitor, partial curve, poor fit]"
17,COc1ccc(C(CNC(=O)CCc2ccsc2)N(C)C)cc1 (stereo unspecified),inactive
18,Cc1cccc(C)c1-n1nnnc1C(C1CC1)N1CCC(n2c(=O)[nH]c3ccccc32)CC1 (stereo unspecified),"inconclusive [inhibitor, single point]"
19,Cc1nc2ncnn2c(C)c1CCC(=O)N1CCC2(CC1)OCCO2,inactive
20,O=C(c1ccc2c(c1)OCO2)C1CCCN(CC2CCCCC2)C1 (stereo unspecified),"inconclusive [inhibitor, single point]"
21,CCCCN1C(=O)NC(=O)C2(Cc3cc(C)ccc3N(C)C2)C1=O (stereo unspecified),active: 13 µM
22,S=c1[nH]nc(-c2ccc3ccccc3n2)n1-c1ccc2c(c1)OCCO2,"inconclusive [inhibitor, single point]"
23,Cc1ccc(S(=O)(=O)c2nnn3c2nc(N2CCC(C(N)=O)CC2)c2cc(Cl)ccc23)cc1C,active: 5.17 µM
24,COC(=O)C1=C(c2cccc(C#N)c2)C[C@@H]2CC[C@H]1N2C(=O)NC1Cc2ccccc2C1,inactive

row,Compound,Potency
1,c1ccc(C(c2ccccc2)N2CCN(c3ccc4ccccc4n3)CC2)cc1,"inconclusive [inhibitor, partial curve]"
2,COc1cc(OC)c(OC)cc1C=O,"inconclusive [inhibitor, partial curve, poor fit]"
3,Cc1ccc(-c2nnc(Nc3ccc(Br)cc3)c3ccccc23)cc1S(=O)(=O)NCc1nc2ccccc2[nH]1,active: 23.1 µM
4,NN=C(N)N,"inconclusive [inhibitor, full curve, poor fit]"
5,COC(=O)C1=C(c2ccc(F)cc2F)C[C@@H]2CC[C@H]1N2C(=O)N1CCOCC1,"inconclusive [inhibitor, partial curve]"
6,Cc1ccc2n1Cc1cnnn1-c1ccccc1-2,"inconclusive [inhibitor, single point]"
7,CCC(NC(=O)OC(C)(C)C)C(=O)Oc1cc(C)cc2oc(=O)c3c(c12)CCC3 (stereo unspecified),active: 11.6 µM
8,COc1cc2c(cc1O)CC1c3c(cc(O)c(OC)c3-2)CCN1C (stereo unspecified),inactive
9,COC(=O)C1=C(c2ccc(-c3ccccc3)c(F)c2)C[C@@H]2CC[C@H]1N2C(=O)N1CCC(O)CC1,active: 9.2 µM
10,Cc1ccccc1S(=O)(=O)N(C)C[C@@H]1OCc2ccccc2-c2c(n(C)c3ccccc23)C(=O)N([C@H](C)CO)C[C@@H]1C,active: 20.6 µM
11,CC[C@]1(C(=O)OC)[C@H]2C(=O)N(Cc3ccccc3)C(=O)[C@H]2[C@H]2CN=C(SCc3ccc(C#N)cc3)N21,"inconclusive [inhibitor, single point]"
12,O=C(COc1ccccc1)N1CCN(C2CC3CCC2C3)CC1 (stereo unspecified),"inconclusive [inhibitor, single point]"
13,Cc1ccc(-c2nc3ccccc3c(=O)n2-c2ccncc2)cc1,"inconclusive [inhibitor, partial curve]"
14,Cc1cc[n+](Cc2ccccc2)cc1,"inconclusive [inhibitor, partial curve]"
15,COC(=O)C1=C(C)NC(C)=C(C(=O)O[C@H]2CCN(Cc3ccccc3)C2)[C@H]1c1cccc([N+](=O)[O-])c1,active: 23.7 µM
16,CO[C@@H]1C=CC23c4cc5c(cc4CO[C@]2(O)CN(C)[C@H]3C1)OCO5 (stereo partly specified),inactive
17,O=C(c1ccccc1F)c1cn(Cc2ccc(F)cc2)c2ccccc12,"inconclusive [inhibitor, full curve, poor fit]"
18,Cc1ccc(C2=NCC(=O)N(CC(=O)N3CCCCC3)c3sc(C)c(C)c32)cc1,"inconclusive [inhibitor, single point]"
19,O=c1c2ccccc2nc(-c2ccccc2)n1-c1ccccc1O,"inconclusive [inhibitor, partial curve]"
20,COc1ccc(CCNC(C)CCc2ccc(OC)cc2)cc1 (stereo unspecified),"inconclusive [inhibitor, partial curve, poor fit]"
21,O=C1NCN(c2ccccc2)C12CCN(C(c1ccccc1)c1nnnn1C1CCCC1)CC2 (stereo unspecified),"inconclusive [inhibitor, single point]"
22,O=C(c1cc2ccccc2oc1=O)N1CCC2(CC1)OCCO2,"inconclusive [inhibitor, full curve, poor fit]"
23,O=C1NC(=O)C(Cc2ccccc2)(Cc2ccccc2)C(=O)N1Cc1ccccc1,"inconclusive [inhibitor, single point]"
24,COc1ccc(CCNC(=O)c2c(N)n(CCN3CCOCC3)c3nc4ccccc4nc23)cc1,active: 18.4 µM

row,Compound,Potency
1,CCCCn1c(O)c(C(C)=Nc2ccc3c(c2)CCC3)c(=O)[nH]c1=O,"inconclusive [inhibitor, single point]"
2,CC(=O)Nc1ccc(C(=O)C(Cc2ccccc2)N(C)C)cc1 (stereo unspecified),"inconclusive [inhibitor, partial curve]"
3,CCN1C[C@]2(CO)CC[C@H](OC)[C@@]34C2[C@H](OC)[C@@](O)(C13)[C@@]1(O)C[C@H](OC)[C@H]2C[C@@H]4[C@@H]1[C@H]2OC,inactive
4,COc1ccc(-c2nc3ccccc3c(=O)o2)cc1,inactive
5,COc1ccc(OC)c(NP(=O)(Oc2ccccc2)Oc2ccccc2)c1,"inconclusive [inhibitor, single point]"
6,COC(=O)C1=C(c2c(C)noc2C)C[C@@H]2CC[C@H]1N2C(=O)N1CCc2cc(OC)c(OC)cc2C1,"inconclusive [inhibitor, single point]"
7,COc1cc(N)c(Cl)cc1C(=O)NC1CN2CCC1CC2 (stereo unspecified),inactive
8,COP(=O)(NC(=O)C(Cl)(Cl)Cl)OC,inactive
9,COc1ccc(OCC(=O)N2CCN(Cc3c[nH]c4ccccc34)CC2)cc1,active: 3.66 µM
10,Cc1ccc(NC(=O)c2cccn(Cc3ccccc3C)c2=O)c(C)c1,inactive
11,CCCC[N+]12CCC(CC1)C(=C(c1ccccc1)c1ccccc1)C2,active: 4.11 µM
12,COc1ccc(-c2nc3ccccc3c(=O)n2-c2nccs2)cc1,"inconclusive [inhibitor, single point]"
13,CCC1CN2CCC1CC2C(O)c1ccnc2ccc(OC)cc12 (stereo unspecified),"inconclusive [inhibitor, single point]"
14,CN(C)[C@@H]1C(=O)C(C(N)=O)=C(O)[C@@]2(O)C(=O)C3=C(O)c4c(O)cccc4[C@@](C)(O)C3[C@H](O)C12 (stereo partly specified),active: 14.6 µM and active: 18.4 µM
15,C1CN(P2(N3CC3)=NP(N3CC3)(N3CC3)=NP(N3CC3)(N3CC3)=N2)CCO1 (stereo unspecified),active: 2.99 µM and active: 1.3 µM
16,Cc1ccc(CN2C(=O)c3ccccc3Sc3ccc(C(=O)N4CCC5(CC4)OCCO5)cc32)cc1,active: 23.1 µM
17,O=C(CCC1CCCN(Cc2cccc3c2OCO3)C1)NCc1ccc(F)c(F)c1 (stereo unspecified),"inconclusive [inhibitor, single point]"
18,COC(=O)C12CCc3c(ccc4cc(OC)ccc34)C1=CC(=O)C2 (stereo unspecified),"inconclusive [inhibitor, single point]"
19,COc1cccc(CN(C)C(=O)c2cccc(S(=O)(=O)N3CCN(c4ccccc4)CC3)c2)c1,active: 7.31 µM
20,CS(=O)(=O)c1ccc(C(=O)N2CCC(C(=O)O)(c3ccccc3)CC2)cc1,inactive
21,CN1CC[C@]23c4c5ccc(O)c4O[C@H]2[C@@H](O)CC[C@H]3[C@H]1C5,inactive
22,Clc1cccc(Cl)c1CN1CCN(c2ccccc2)CC1,inactive
23,C[N+](C)(C)CC1CCCc2ccccc2C1=O (stereo unspecified),active: 2.59 µM
